From PubChem BioAssay (NCATS)
The inconclusive results got no clear call from the source; some entries with a clear call stand among them for comparison. Potencies beside an inconclusive call are fits to weak or partial responses and may not hold up. Activity calls are given as the source filed them. The call rests on the fitted dose curve; in most records, active means well fitted inhibition curve with a large enough effect; inconclusive means small, poorly fitted or top-dose-only effect; inactive means flat fitted curve, though single readings scatter.

Target: Ubiquitin carboxyl-terminal hydrolase 2 (Homo sapiens) (UniProt O75604)
Test: qHTS for Inhibitors of Ubiquitin-specific Protease USP2a Using CHOP2 as the Reporter: K484 Substrate (AID 652173);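 further: cleavage of internally quenched K48 di-ubiquitin substrate measured as rising fluorescence over time; nearly all actives have a fitted effect of over 70% in size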
Conditions: USP2 cleavage of DiUb K48 IQF substrate, fluorescence; series mostly up to 57.5 µM
Procedure, shortened: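 Kinetic fluorescence (Ex 525/Em 598) tracked cleavage of an internally quenched K48 di-ubiquitin substrate, added as a 100 nM solution. The enzyme was added as a 5 nM USP2 solution before compound pinning, with no-enzyme controls. Buffer: Tris pH 8, beta-mercaptoethanol, CHAPS.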
Potency means the concentration at half of the fitted maximal effect; tags describe the fitted curve by direction and shape.

UniProt O75604, sequence (O75604 whole entry, looked up): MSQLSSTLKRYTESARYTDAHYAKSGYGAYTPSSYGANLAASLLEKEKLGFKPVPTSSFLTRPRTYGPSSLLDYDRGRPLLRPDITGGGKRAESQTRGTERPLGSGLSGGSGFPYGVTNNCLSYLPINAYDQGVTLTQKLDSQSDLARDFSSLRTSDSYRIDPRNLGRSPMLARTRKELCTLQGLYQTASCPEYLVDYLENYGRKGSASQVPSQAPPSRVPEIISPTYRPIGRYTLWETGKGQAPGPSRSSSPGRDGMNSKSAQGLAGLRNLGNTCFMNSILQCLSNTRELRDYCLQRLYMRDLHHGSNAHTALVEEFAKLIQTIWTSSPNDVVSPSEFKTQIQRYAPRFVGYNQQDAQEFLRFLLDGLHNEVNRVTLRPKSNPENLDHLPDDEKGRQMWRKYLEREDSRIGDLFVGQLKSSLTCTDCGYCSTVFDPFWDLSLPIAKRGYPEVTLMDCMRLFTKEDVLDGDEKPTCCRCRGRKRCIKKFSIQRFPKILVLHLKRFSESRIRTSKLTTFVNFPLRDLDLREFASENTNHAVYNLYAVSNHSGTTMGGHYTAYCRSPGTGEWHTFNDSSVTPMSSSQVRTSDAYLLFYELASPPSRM

Row | Compound | Potency
1 | Clc1nc(CN2CCOCC2)nc2sc3c(c12)CCC3 | inactive
2 | Cc1ccc(S(=O)(=O)Nc2cnccc2C(=O)Nc2ccc(N3CCOCC3)cc2)cc1 | inconclusive: 21.7 µM [inhibitor, partial curve]
3 | O=c1[nH]c(CN2CCOCC2)nc2sc3c(c12)CCCC3 | inactive
4 | Cc1ccc(NC(=O)c2ccncc2NS(=O)(=O)c2ccc(C)cc2)cc1 | inconclusive: 24.3 µM [inhibitor, partial curve]
5 | COc1ccc(C(=O)Nc2nc(-c3ccccc3)cs2)c(OC)c1 | inconclusive: 21.7 µM [inhibitor, partial curve]
6 | O=C(Nc1ccc([S+](=O)([O-])Nc2nccs2)cc1)c1ccccn1 | inactive
7 | O=C(Nc1ccc(S(=O)(=O)Nc2nccs2)cc1)c1ccncc1 | inactive
8 | O=C(Nc1ccc(S(=O)(=O)Nc2nccs2)cc1)C1CC(OCc2ccccc2)C1 (stereo unspecified) | inconclusive: 30.6 µM [inhibitor, single point]
9 | O=S(=O)(Nc1ccc(S(=O)(=O)Nc2nccs2)cc1)c1ccc2ccccc2c1 | inconclusive: 30.6 µM [inhibitor, partial curve, poor fit]
10 | Cc1ccc(-c2cc(C(=O)N3CC[S+](=O)([O-])CC3)c3ccccc3n2)cc1C | inactive
11 | CCS(=O)(=O)N1CCC(C(=O)Nc2ccc(S(=O)(=O)Nc3nccs3)cc2)CC1 | inconclusive: 43.2 µM [inhibitor, partial curve]
